Data published in the supplement of paper PMC4967469.
IC50 is the fitted dose that halves viability relative to control wells, and lower means more sensitive; fits outside the tested doses are given as limits. AUC sums up the same curve from the lowest dose to the 256-fold higher top dose; the more sensitive the line, the further below 1. An inferred top dose comes from the curve model; the source does not state it.

Each cell line was assayed with O=C1NC(=O)/C(=C\c2ccc3nccnc3c2)S1 [AS605240] (assay: Viability of human cancer cell lines after 72 h of drug (GDSC screen)). Conditions: top dose inferred.
Protocol: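 Human cancer cell lines in 384-well plates, medium with 10% serum, drug for 72 h over a 256-fold dose range (nine 2-fold or five 4-fold steps up to the top dose). Adherent lines were fixed and stained with the nucleic acid dye Syto60, suspension lines read with resazurin; signal relative to control wells, capped at 0 and 100%. One two-parameter sigmoid per drug and line, fitted in a mixed model over all curves with the slope shared within a line.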

Point of comparison: “JHU-011 (head and neck, adherent, top dose 20 µM)”, AUC 0.756. Against it:
- HOP-92 (large cell lung carcinoma, adherent, top dose 20 µM) — higher, 0.966
- HOS (osteosarcoma, adherent, top dose 20 µM) — higher, 0.983
- HPAC (pancreas, adherent, top dose 20 µM) — higher, 0.822
- HPAF-II (pancreas, adherent, top dose 20 µM) — lower, 0.601
- HSC-2 (head and neck, adherent, top dose 20 µM) — higher, 0.891
- HSC-3 (head and neck, adherent, top dose 20 µM) — higher, 0.96
- HSC-4 (head and neck, adherent, top dose 20 µM) — higher, 0.939
- HSC-39 (stomach, suspension, top dose 20 µM) — higher, 0.981
- HT55 (large intestine, adherent, top dose 20 µM) — higher, 0.967
- HT (B-cell lymphoma, suspension, top dose 20 µM) — higher, 0.898
- HT-3 (cervix, adherent, top dose 20 µM) — higher, 0.94
- HT-29 (large intestine, adherent, top dose 20 µM) — lower, 0.466
- HT-115 (large intestine, adherent, top dose 20 µM) — higher, 0.969
- HT-144 (melanoma, adherent, top dose 20 µM) — higher, 0.978
- HT-1080 (fibrosarcoma, adherent, top dose 20 µM) — higher, 0.989
- HT-1197 (bladder, adherent, top dose 20 µM) — higher, 0.929
- HT-1376 (bladder, adherent, top dose 20 µM) — higher, 0.86
- HTC-C3 (thyroid, adherent, top dose 20 µM) — higher, 0.911
- HUTU-80 (digestive system, adherent, top dose 20 µM) — lower, 0.696
- HeLa (cervix, adherent, top dose 20 µM) — higher, 0.935
- Hep 3B2_1-7 (liver, adherent, top dose 20 µM) — higher, 0.97
- Hey (ovary, adherent, top dose 20 µM) — higher, 0.958
- Hs633T (fibrosarcoma, adherent, top dose 20 µM) — higher, 0.865
- Hs683 (glioma, adherent, top dose 20 µM) — higher, 0.927
- Hs746T (stomach, adherent, top dose 20 µM) — higher, 0.944
- Hs766T (pancreas, adherent, top dose 20 µM) — higher, 0.962
- Hs939-T (melanoma, adherent, top dose 20 µM) — higher, 0.937
- Hs940-T (melanoma, adherent, top dose 20 µM) — higher, 0.9
- Hs-445 (Hodgkin lymphoma, suspension, top dose 20 µM) — lower, 0.664
- Hs-578-T (breast, adherent, top dose 20 µM) — higher, 0.987
- HuCCT1 (biliary tract, adherent, top dose 20 µM) — higher, 0.865
- HuH-7 (liver, adherent, top dose 20 µM) — higher, 0.893
- HuO9 (osteosarcoma, adherent, top dose 20 µM) — lower, 0.682
- HuO-3N1 (osteosarcoma, adherent, top dose 20 µM) — higher, 0.982
- HuP-T3 (pancreas, adherent, top dose 20 µM) — higher, 0.869
- HuP-T4 (pancreas, adherent, top dose 20 µM) — lower, 0.628
- IA-LM (large cell lung carcinoma, adherent, top dose 20 µM) — higher, 0.902
- IHH-4 (thyroid, semi-adherent, top dose 20 µM) — higher, 0.988
- IM-95 (stomach, adherent, top dose 20 µM) — lower, 0.578
- IMR-5 (neuroblastoma, adherent, top dose 20 µM) — higher, 0.953
- IPC-298 (melanoma, adherent, top dose 20 µM) — lower, 0.731
- IST-MEL1 (melanoma, adherent, top dose 20 µM) — higher, 0.841
- IST-MES1 (mesothelioma, adherent, top dose 20 µM) — higher, 0.972
- IST-SL1 (small cell lung carcinoma, semi-adherent, top dose 20 µM) — higher, 0.96
- IST-SL2 (small cell lung carcinoma, suspension, top dose 20 µM) — higher, 0.887
- J82 (bladder, adherent, top dose 20 µM) — higher, 0.898
- JAR (urogenital system, adherent, top dose 20 µM) — higher, 0.933
- JEG-3 (urogenital system, adherent, top dose 20 µM) — higher, 0.959
- JHH-1 (liver, adherent, top dose 20 µM) — higher, 0.813
- JHH-2 (liver, adherent, top dose 20 µM) — higher, 0.95
- JHH-4 (liver, adherent, top dose 20 µM) — higher, 0.983
- JHH-6 (liver, adherent, top dose 20 µM) — higher, 0.985
- JHH-7 (liver, adherent, top dose 20 µM) — higher, 0.987
- JHOS-2 (ovary, adherent, top dose 20 µM) — higher, 0.889
- JHOS-3 (ovary, adherent, top dose 20 µM) — higher, 0.947
- JHU-022 (head and neck, adherent, top dose 20 µM) — higher, 0.895
- JIMT-1 (breast, adherent, top dose 20 µM) — higher, 0.847
- JJN-3 (haematopoietic neoplasm, suspension, top dose 20 µM) — higher, 0.847
- JM1 (B-cell lymphoma, suspension, top dose 20 µM) — higher, 0.892
- JSC-1 (B-cell lymphoma, suspension, top dose 20 µM) — lower, 0.481
- JURL-MK1 (chronic myeloid leukaemia, suspension, top dose 20 µM) — lower, 0.415
- JVM-2 (lymphoid neoplasm, suspension, top dose 20 µM) — higher, 0.949
- JVM-3 (lymphoid neoplasm, suspension, top dose 20 µM) — higher, 0.857
- JiyoyeP-2003 (Burkitt lymphoma, suspension, top dose 20 µM) — higher, 0.869
- K2 (melanoma, adherent, top dose 20 µM) — lower, 0.507
- K5 (thyroid, adherent, top dose 20 µM) — higher, 0.811
- KALS-1 (glioma, adherent, top dose 20 µM) — higher, 0.807
- KARPAS-45 (lymphoblastic leukaemia, suspension, top dose 20 µM) — lower, 0.621
- KARPAS-299 (anaplastic large cell lymphoma, suspension, top dose 20 µM) — higher, 0.906
- KARPAS-422 (B-cell lymphoma, suspension, top dose 20 µM) — higher, 0.861
- KARPAS-620 (haematopoietic neoplasm, suspension, top dose 20 µM) — higher, 0.884
- KASUMI-1 (acute myeloid leukaemia, suspension, top dose 20 µM) — lower, 0.407
- KCL-22 (chronic myeloid leukaemia, suspension, top dose 20 µM) — higher, 0.811
- KE-37 (lymphoblastic leukaemia, suspension, top dose 20 µM) — lower, 0.4
- KELLY (neuroblastoma, adherent, top dose 20 µM) — higher, 0.925
- KG-1 (acute myeloid leukaemia, suspension, top dose 20 µM) — lower, 0.755
- KGN (ovary, adherent, top dose 20 µM) — higher, 0.797
- KINGS-1 (glioma, adherent, top dose 20 µM) — higher, 0.86
- KLE (endometrium, adherent, top dose 20 µM) — higher, 0.954
- KM12 (large intestine, adherent, top dose 20 µM) — higher, 0.986
- KM-H2 (Hodgkin lymphoma, suspension, top dose 20 µM) — higher, 0.906
- KMH-2 (thyroid, adherent, top dose 20 µM) — higher, 0.938

Point of comparison: “IST-MEL1 (melanoma, adherent, top dose 20 µM)”, IC50 18 µM. Against it:
- HOP-92 (large cell lung carcinoma, adherent, top dose 20 µM) — higher, > 20 µM
- HOS (osteosarcoma, adherent, top dose 20 µM) — higher, > 20 µM
- HPAC (pancreas, adherent, top dose 20 µM) — within 1.5-fold, 18.7 µM
- HPAF-II (pancreas, adherent, top dose 20 µM) — 7-fold lower, 2.57 µM
- HSC-2 (head and neck, adherent, top dose 20 µM) — higher, > 20 µM
- HSC-3 (head and neck, adherent, top dose 20 µM) — higher, > 20 µM
- HSC-4 (head and neck, adherent, top dose 20 µM) — higher, > 20 µM
- HSC-39 (stomach, suspension, top dose 20 µM) — higher, > 20 µM
- HT55 (large intestine, adherent, top dose 20 µM) — higher, > 20 µM
- HT (B-cell lymphoma, suspension, top dose 20 µM) — higher, > 20 µM
- HT-3 (cervix, adherent, top dose 20 µM) — higher, > 20 µM
- HT-29 (large intestine, adherent, top dose 20 µM) — 18-fold lower, 1.01 µM
- HT-115 (large intestine, adherent, top dose 20 µM) — higher, > 20 µM
- HT-144 (melanoma, adherent, top dose 20 µM) — higher, > 20 µM
- HT-1080 (fibrosarcoma, adherent, top dose 20 µM) — higher, > 20 µM
- HT-1197 (bladder, adherent, top dose 20 µM) — higher, > 20 µM
- HT-1376 (bladder, adherent, top dose 20 µM) — higher, > 20 µM
- HTC-C3 (thyroid, adherent, top dose 20 µM) — higher, > 20 µM
- HUTU-80 (digestive system, adherent, top dose 20 µM) — 4.5-fold lower, 3.97 µM
- HeLa (cervix, adherent, top dose 20 µM) — higher, > 20 µM
- Hep 3B2_1-7 (liver, adherent, top dose 20 µM) — higher, > 20 µM
- Hey (ovary, adherent, top dose 20 µM) — higher, > 20 µM
- Hs633T (fibrosarcoma, adherent, top dose 20 µM) — within 1.5-fold, 12.6 µM
- Hs683 (glioma, adherent, top dose 20 µM) — higher, > 20 µM
- Hs746T (stomach, adherent, top dose 20 µM) — higher, > 20 µM
- Hs766T (pancreas, adherent, top dose 20 µM) — higher, > 20 µM
- Hs939-T (melanoma, adherent, top dose 20 µM) — higher, > 20 µM
- Hs940-T (melanoma, adherent, top dose 20 µM) — higher, > 20 µM
- Hs-445 (Hodgkin lymphoma, suspension, top dose 20 µM) — 5.2-fold lower, 3.43 µM
- Hs-578-T (breast, adherent, top dose 20 µM) — higher, > 20 µM
- HuCCT1 (biliary tract, adherent, top dose 20 µM) — higher, > 20 µM
- HuH-7 (liver, adherent, top dose 20 µM) — higher, > 20 µM
- HuO9 (osteosarcoma, adherent, top dose 20 µM) — 4.2-fold lower, 4.3 µM
- HuO-3N1 (osteosarcoma, adherent, top dose 20 µM) — higher, > 20 µM
- HuP-T3 (pancreas, adherent, top dose 20 µM) — higher, > 20 µM
- HuP-T4 (pancreas, adherent, top dose 20 µM) — 6.2-fold lower, 2.88 µM
- IA-LM (large cell lung carcinoma, adherent, top dose 20 µM) — higher, > 20 µM
- IHH-4 (thyroid, semi-adherent, top dose 20 µM) — higher, > 20 µM
- IM-95 (stomach, adherent, top dose 20 µM) — 8.7-fold lower, 2.07 µM
- IMR-5 (neuroblastoma, adherent, top dose 20 µM) — higher, > 20 µM
- IPC-298 (melanoma, adherent, top dose 20 µM) — 3.2-fold lower, 5.59 µM
- IST-MES1 (mesothelioma, adherent, top dose 20 µM) — higher, > 20 µM
- IST-SL1 (small cell lung carcinoma, semi-adherent, top dose 20 µM) — higher, > 20 µM
- IST-SL2 (small cell lung carcinoma, suspension, top dose 20 µM) — higher, > 20 µM
- J82 (bladder, adherent, top dose 20 µM) — higher, > 20 µM
- JAR (urogenital system, adherent, top dose 20 µM) — higher, > 20 µM
- JEG-3 (urogenital system, adherent, top dose 20 µM) — higher, > 20 µM
- JHH-1 (liver, adherent, top dose 20 µM) — 1.5-fold lower, 12 µM
- JHH-2 (liver, adherent, top dose 20 µM) — higher, > 20 µM
- JHH-4 (liver, adherent, top dose 20 µM) — higher, > 20 µM
- JHH-6 (liver, adherent, top dose 20 µM) — higher, > 20 µM
- JHH-7 (liver, adherent, top dose 20 µM) — higher, > 20 µM
- JHOS-2 (ovary, adherent, top dose 20 µM) — higher, > 20 µM
- JHOS-3 (ovary, adherent, top dose 20 µM) — higher, > 20 µM
- JHU-011 (head and neck, adherent, top dose 20 µM) — 2.7-fold lower, 6.74 µM
- JHU-022 (head and neck, adherent, top dose 20 µM) — higher, > 20 µM
- JIMT-1 (breast, adherent, top dose 20 µM) — within 1.5-fold, 16.6 µM
- JJN-3 (haematopoietic neoplasm, suspension, top dose 20 µM) — 1.7-fold lower, 10.9 µM
- JM1 (B-cell lymphoma, suspension, top dose 20 µM) — within 1.5-fold, 17.7 µM
- JSC-1 (B-cell lymphoma, suspension, top dose 20 µM) — 16-fold lower, 1.11 µM
- JURL-MK1 (chronic myeloid leukaemia, suspension, top dose 20 µM) — 25-fold lower, 0.732 µM
- JVM-2 (lymphoid neoplasm, suspension, top dose 20 µM) — higher, > 20 µM
- JVM-3 (lymphoid neoplasm, suspension, top dose 20 µM) — within 1.5-fold, 16.6 µM
- JiyoyeP-2003 (Burkitt lymphoma, suspension, top dose 20 µM) — within 1.5-fold, 14.8 µM
- K2 (melanoma, adherent, top dose 20 µM) — 14-fold lower, 1.31 µM
- K5 (thyroid, adherent, top dose 20 µM) — 1.8-fold lower, 10.1 µM
- KALS-1 (glioma, adherent, top dose 20 µM) — within 1.5-fold, 15.1 µM
- KARPAS-45 (lymphoblastic leukaemia, suspension, top dose 20 µM) — 7.1-fold lower, 2.53 µM
- KARPAS-299 (anaplastic large cell lymphoma, suspension, top dose 20 µM) — within 1.5-fold, 19.1 µM
- KARPAS-422 (B-cell lymphoma, suspension, top dose 20 µM) — within 1.5-fold, 16.5 µM
- KARPAS-620 (haematopoietic neoplasm, suspension, top dose 20 µM) — within 1.5-fold, 16.3 µM
- KASUMI-1 (acute myeloid leukaemia, suspension, top dose 20 µM) — 26-fold lower, 0.696 µM
- KCL-22 (chronic myeloid leukaemia, suspension, top dose 20 µM) — 2.1-fold lower, 8.59 µM
- KE-37 (lymphoblastic leukaemia, suspension, top dose 20 µM) — 25-fold lower, 0.71 µM
- KELLY (neuroblastoma, adherent, top dose 20 µM) — higher, > 20 µM
- KG-1 (acute myeloid leukaemia, suspension, top dose 20 µM) — 2.9-fold lower, 6.12 µM
- KGN (ovary, adherent, top dose 20 µM) — 1.5-fold lower, 11.8 µM
- KINGS-1 (glioma, adherent, top dose 20 µM) — higher, > 20 µM
- KLE (endometrium, adherent, top dose 20 µM) — higher, > 20 µM
- KM12 (large intestine, adherent, top dose 20 µM) — higher, > 20 µM
- KM-H2 (Hodgkin lymphoma, suspension, top dose 20 µM) — within 1.5-fold, 20 µM
- KMH-2 (thyroid, adherent, top dose 20 µM) — higher, > 20 µM
